The target of the assay is Nonstructural protein 3 (Zika virus) (UniProt A0A024AXB9).
Where [1] appears, read: PRVABC59, Concentration 50.0 uM, Number of replicates 1.0.
The mark [2] stands for this setting: PRVABC59, Concentration 15.0 uM, Number of replicates 1.0.

Among all 2,700 compounds or so, about 160 (5.9%) showed an effect of 50% or more. The list shows a part of the results.

For orientation: inhibition means the relative decrease from the control value, in per cent.

UniProt A0A024AXB9, sequence (A0A024AXB9 as listed by the source): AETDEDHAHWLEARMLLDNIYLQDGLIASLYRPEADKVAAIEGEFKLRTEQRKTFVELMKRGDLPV

With `O=Cc1ccc(N2CCC(C(=O)N3CCC(c4nc5ccccc5[nH]4)CC3)CC2)cc1`, under setting [1], the inhibition stood at 23.4%.
Take `CCN(Cc1cc(Br)ccc1F)C(=O)c1cc(Cl)ccc1NS(=O)(=O)c1ccc(Oc2ccccc2Cl)cc1`: under setting [2], the inhibition came to 30.3%.
Turning to `CNC(=O)c1cc(Cl)ccc1NS(=O)(=O)c1ccc(Cn2cncn2)cc1`, the inhibition came to 3.9% (PRVABC59, Concentration 49.5 uM, Number of replicates 2.0, Standard deviation 1.2710076748523556 %); 4.47% (PRVABC59, Concentration 99.01 uM, Number of replicates 2.0, Standard deviation 2.5202512228958676 %); 10.3% (PRVABC59, Concentration 198.0 uM, Number of replicates 2.0, Standard deviation 0.07834930550781156 %).
Regarding `CCc1ccc(-c2ccccc2C(=O)Nc2cnn(C)c2)c(F)c1`, the inhibition reads like this: (PRVABC59, Concentration 99.01 uM, Number of replicates 2.0, Standard deviation 6.546855425330618 %) -2.21%; (PRVABC59, Concentration 198.0 uM, Number of replicates 2.0, Standard deviation 6.158335154751372 %) 0.596%.
Consider `CC(C)Nc1nc2ccc(C(=O)Nc3c[nH]c(C(N)=O)c3)cc2[nH]1`, for which the inhibition runs as follows: (PRVABC59, Concentration 49.5 uM, Number of replicates 2.0, Standard deviation 2.468176515630838 %) 2.75%; (PRVABC59, Concentration 99.01 uM, Number of replicates 2.0, Standard deviation 1.3712092783760954 %) 6.54%; (PRVABC59, Concentration 198.0 uM, Number of replicates 2.0, Standard deviation 3.135895465303712 %) 13%.
`O=C(NCC12CC3CC(CC(C3)C1)C2)c1cc(Cl)ccc1NS(=O)(=O)c1ccc(Oc2ccccc2Cl)cc1`: the inhibition under setting [2] amounted to 23.8%.
The same measure, in the same setting: then `O=C(Nc1cc(Cl)cc([N+](=O)[O-])c1O)c1cc(Cl)ccc1NS(=O)(=O)c1ccc(Oc2ccccc2Cl)cc1`, with 92.4%.
For the compound `O=C(Nc1cc(Cl)c(F)c(Cl)c1)c1cc(Cl)ccc1NS(=O)(=O)c1ccc(Oc2ccccc2Cl)cc1`, the inhibition under setting [2] worked out at 24.3%.
With `CC(C)(C)C1CCC(NC(=O)c2cc(Cl)ccc2NS(=O)(=O)c2ccc(Oc3ccccc3Cl)cc2)CC1` (stereo not given), the inhibition under setting [2] came out at 28.9%.
For `O=Cc1ccc(N2CCC(C(=O)N[C@H]3CCC[C@@H]3OCc3ccccc3)CC2)cc1`, the inhibition under setting [1] came out at 24.7%.
Turning to `CCn1ccnc(N[C@@H](Cc2c[nH]c3ccccc23)C(=O)O)c1=O`, the inhibition was -4.52% (PRVABC59, Concentration 49.5 uM, Number of replicates 2.0, Standard deviation 1.5281595903710257 %); -2.25% (PRVABC59, Concentration 99.01 uM, Number of replicates 2.0, Standard deviation 1.7817962479896445 %); 2.42% (PRVABC59, Concentration 198.0 uM, Number of replicates 2.0, Standard deviation 2.4010917983245332 %).
As to `CN(C(=O)c1cc(Cl)ccc1NS(=O)(=O)c1ccc(Oc2ccccc2Cl)cc1)C1CCN(C(=O)OC(C)(C)C)CC1`, the inhibition under setting [2] was 17%.
`CCCCCN(CCCCC)C(=O)C1CCN(c2ccc(C=O)cc2)CC1`: the inhibition under setting [1] was 26.1%.
Still for that read-out and setting: then `C[C@@H]1CCN(Cc2ccccc2)C[C@@H]1N(C)C(=O)C1CCN(c2ccc(C=O)cc2)CC1`, with 28%.
For `c1ccc2[nH]c(CN3CC[C@H](c4c[nH]c5ccccc45)C3)cc2c1`, the inhibition came out at 10% (PRVABC59, Concentration 49.5 uM, Number of replicates 2.0, Standard deviation 2.2954481937210667 %); 9.75% (PRVABC59, Concentration 99.01 uM, Number of replicates 2.0, Standard deviation 2.0493220623602406 %); 8.07% (PRVABC59, Concentration 198.0 uM, Number of replicates 2.0, Standard deviation 2.000096566348245 %).
`CC(C)Cn1cccc(C(=O)N[C@H]2CCCN(C)C2)c1=O`: the inhibition by setting is: (PRVABC59, Concentration 49.5 uM, Number of replicates 2.0, Standard deviation 0.18069500350899767 %) -4.57%; (PRVABC59, Concentration 99.01 uM, Number of replicates 2.0, Standard deviation 0.9453197574457564 %) -7.61%.
For the compound `O=Cc1ccc(N2CCC(C(=O)N3CCC[C@H](c4nc5ccccc5o4)C3)CC2)cc1`, under setting [1], the inhibition stood at 21.4%.
On the same count and under the same terms, the result for `COc1cc(Br)ccc1NC(=O)C1CCN(c2ccc(C=O)cc2)CC1` reads 23.3%.
On to `C[C@H](NC(=O)c1cc(Cl)ccc1NS(=O)(=O)c1ccc(Oc2ccccc2Cl)cc1)c1ccccc1-n1cccn1`, for which the inhibition under setting [2] stood at 23.9%.
With `Cc1cc(N)cc(CNC(=O)c2ccccc2Cc2cccc3c(CO)cc(C)nc23)c1`, the inhibition is, setting by setting: (PRVABC59, Concentration 49.95 uM, Number of replicates 2.0, Standard deviation 0.03145975642768365 %) 34.6%; (PRVABC59, Concentration 99.9 uM, Number of replicates 2.0, Standard deviation 1.7408307334956623 %) 60.7%.
`CCCN(C[C@H](O)COc1ccccc1C(=O)CCc1ccccc1)C(=O)C1CCN(c2ccc(C=O)cc2)CC1`: the inhibition under setting [1] was 32.4%.
For `CNC(=O)c1cc(Cl)ccc1NS(=O)(=O)c1ccc(F)c(C(=O)N2CCCC2)c1`, the inhibition (PRVABC59, Concentration 49.5 uM, Number of replicates 2.0, Standard deviation 4.918625223841024 %) was determined as 0.943%; the inhibition (PRVABC59, Concentration 99.01 uM, Number of replicates 2.0, Standard deviation 3.521387569111147 %) is 4.53%; the inhibition (PRVABC59, Concentration 198.0 uM, Number of replicates 2.0, Standard deviation 3.3733929566625998 %) was found to be 9.77%.
For the compound `Cc1cc(CO)c2cccc(Cc3ccccc3NC(=O)c3cccc(Cn4cncn4)c3)c2n1`, the inhibition runs as follows: (PRVABC59, Concentration 49.95 uM, Number of replicates 2.0, Standard deviation 1.9900579035293746 %) -2.33%; (PRVABC59, Concentration 99.9 uM, Number of replicates 2.0, Standard deviation 1.165532699789781 %) 0.115%.
For the compound `O=Cc1ccc(N2CCC(C(=O)Nc3ccc(OC(F)F)cc3)CC2)cc1`, under setting [1], the inhibition was 9.85%.
With `O=C(NCCc1csc(-c2ccncc2)n1)c1cc(Cl)ccc1NS(=O)(=O)c1ccc(Oc2ccccc2Cl)cc1`, the inhibition under setting [2] was 31.3%.
In the case of `CCCCCC(=O)N[C@@H](Cc1ccc(CN)cc1)C(=O)Nc1cccc(C(N)=O)c1`, the inhibition is, setting by setting: (PRVABC59, Concentration 49.5 uM, Number of replicates 2.0, Standard deviation 2.7863703861974125 %) 3.11%; (PRVABC59, Concentration 99.01 uM, Number of replicates 2.0, Standard deviation 1.994146105688083 %) 8.07%.
With `COc1cc(CNC(=O)c2cc(Cl)ccc2NS(=O)(=O)c2ccc(Oc3ccccc3Cl)cc2)cc(OC)c1OC`, the inhibition under setting [2] is 19.3%.
Turning to `O=S(=O)(c1ccc(Oc2ccccc2Cl)cc1)N1CCCCC1`, the inhibition was found to be 2.52% (PRVABC59, Concentration 49.5 uM, Number of replicates 2.0, Standard deviation 4.647075144080911 %); 2.07% (PRVABC59, Concentration 99.01 uM, Number of replicates 2.0, Standard deviation 2.1543833661046805 %); 5.34% (PRVABC59, Concentration 198.0 uM, Number of replicates 2.0, Standard deviation 2.3847652893231714 %).
`Cc1cc(CO)c2cccc(NC(=O)c3nc(C4CCNCC4)oc3C)c2n1`: the inhibition is, setting by setting: (PRVABC59, Concentration 49.95 uM, Number of replicates 2.0, Standard deviation 16.97136657317194 %) 81.5%; (PRVABC59, Concentration 99.9 uM, Number of replicates 2.0, Standard deviation 2.022315036184036 %) 88.9%.
`CNS(=O)(=O)c1ccc(Oc2ccccc2Cl)cc1`: the inhibition (PRVABC59, Concentration 49.5 uM, Number of replicates 2.0, Standard deviation 2.117620524609962 %) was found to be 3.32%; the inhibition (PRVABC59, Concentration 99.01 uM, Number of replicates 2.0, Standard deviation 2.851061668270481 %) turned out to be 6.03%; the inhibition (PRVABC59, Concentration 198.0 uM, Number of replicates 2.0, Standard deviation 3.362511651901451 %) amounted to 9.61%.
In the case of `COc1cc(CCNC(=O)C2CCN(c3ccc(C=O)cc3)CC2)cc(OC)c1O`, the inhibition under setting [1] was determined as 28.9%.
The same measure, in the same setting: then `CN(CCCOc1ccc(Br)cc1)C(=O)C1CCN(c2ccc(C=O)cc2)CC1`, with 3.72%.
Turning to `Cc1cc(CO)c2cccc(CC(=O)NCCc3ncc[nH]3)c2n1`, the inhibition turned out to be 12.5% (PRVABC59, Concentration 49.95 uM, Number of replicates 2.0, Standard deviation 0.020358613704702253 %) and 32.3% (PRVABC59, Concentration 99.9 uM, Number of replicates 2.0, Standard deviation 0.02544995300481825 %).
`O=Cc1ccc(N2CCC(C(=O)Nc3c(F)c(F)cc(F)c3F)CC2)cc1`: the inhibition under setting [1] worked out at 24.1%.
For `O=C(N[C@H](CO)[C@H](O)c1ccc([N+](=O)[O-])cc1)c1cc(Cl)ccc1NS(=O)(=O)c1ccc(Oc2ccccc2Cl)cc1`, under setting [2], the inhibition is 37.4%.
On the same count and under the same terms, the result for `C[C@H](NC(=O)c1cc(Cl)ccc1NS(=O)(=O)c1ccc(Oc2ccccc2Cl)cc1)c1cccc2ccccc12` reads 29.8%.
Still for that read-out and setting: the result for `O=C(N[C@@H](CCO)c1ccccc1F)c1cc(Cl)ccc1NS(=O)(=O)c1ccc(Oc2ccccc2Cl)cc1` reads 37%.
On to `Cc1cc(CO)c2cccc(C[C@H](NC(=O)c3cnn(Cc4c(C)noc4C)c3)C(=O)O)c2n1`, for which the inhibition (PRVABC59, Concentration 49.95 uM, Number of replicates 2.0, Standard deviation 1.1541732811791248 %) is -1.7% and the inhibition (PRVABC59, Concentration 99.9 uM, Number of replicates 2.0, Standard deviation 1.224427357199752 %) was 1.57%.

The record behind these values is ChEMBL document CHEMBL5606458, “ASAP - ZIKV NS2B-NS3 protease fluorescence single point” (2024).
